# Data reported in paper PMC6919601, “Identification of Plasmodium dipeptidyl aminopeptidase allosteric inhibitors by high throughput screening” (PLoS ONE, 2019).
# In all, about 110,000 compounds went through this assay and about 230 (0.21%) showed an effect of 50% or more. The list shows a part of the results.
# Biological target: DPAP1 (Plasmodium falciparum, UniProt Q8IIJ9)
# Assay: primary screen, percent inhibition; read by cleavage of a fluorogenic dipeptide substrate; higher = more effect of the substance
# Design: species or system P. falciparum D10 trophozoite lysates; single well
# 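Further: 30 min substrate incubation versus DMSO and 10 µM JCP410 controls.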
# DPAP1, sequence (Q8IIJ9 whole entry, looked up): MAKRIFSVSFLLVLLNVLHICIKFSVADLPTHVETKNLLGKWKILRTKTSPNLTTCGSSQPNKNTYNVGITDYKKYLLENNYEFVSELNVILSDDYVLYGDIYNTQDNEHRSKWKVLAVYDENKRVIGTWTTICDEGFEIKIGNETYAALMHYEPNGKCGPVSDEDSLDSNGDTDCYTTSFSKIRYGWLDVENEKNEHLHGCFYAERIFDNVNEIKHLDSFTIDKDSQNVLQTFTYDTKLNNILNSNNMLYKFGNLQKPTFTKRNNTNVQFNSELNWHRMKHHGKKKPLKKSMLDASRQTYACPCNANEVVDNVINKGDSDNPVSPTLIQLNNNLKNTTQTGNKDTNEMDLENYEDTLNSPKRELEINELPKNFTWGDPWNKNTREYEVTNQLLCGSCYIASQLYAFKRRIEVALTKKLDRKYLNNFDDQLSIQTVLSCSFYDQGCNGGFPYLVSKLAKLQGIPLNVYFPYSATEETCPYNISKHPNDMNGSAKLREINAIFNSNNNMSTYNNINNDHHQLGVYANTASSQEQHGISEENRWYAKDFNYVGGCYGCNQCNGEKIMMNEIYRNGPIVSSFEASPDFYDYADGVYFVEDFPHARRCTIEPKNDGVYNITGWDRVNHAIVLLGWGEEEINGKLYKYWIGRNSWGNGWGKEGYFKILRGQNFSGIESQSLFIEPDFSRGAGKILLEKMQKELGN
row,Compound,% Inhibition @ 10 uM
1,COc1ccc2c(c1)C1CC(C)(NC(=O)C1C(=O)c1ccccc1)O2 (stereo not drawn),-2.21%
2,Cc1nn2c3ccccc3n(C)c2c1C=O,2.8%
3,Cc1ccc(CNS(=O)(=O)c2cn(C)cn2)cc1,1.47%
4,COc1ccccc1NC(=O)C(c1ccccc1)c1ccccc1,-0.828%
5,Cn1cc(/C=C(\NC(=O)c2ccco2)C(=O)NCCCO)c2ccccc21,-3.52%
6,CC(C)C[C@@H](C(=O)NC1(C#N)CC1)c1cccc(-c2ccc(N3CCN(C(=O)OC(C)(C)C)CC3)cc2)c1,3.19%
7,CC(C)C(=O)Nc1ccccc1C(=O)Nc1ccc(C(=O)O)cc1,13%
8,COc1cccc2c1OC(c1cccnc1)N1N=C(c3cc(C)ccc3O)CC21 (stereo not drawn),3.39%
9,COc1cc(OC)cc(C(=O)NCCOc2ccccc2C)c1,-9.59%
10,CCC(Sc1nc2ccccc2c2nc3ccccc3n12)C(=O)NCCCOC (stereo not drawn),3.36%
11,Nc1nc(CSc2nc3ccccc3[nH]2)nc(N2CCOCC2)n1,-2.39%
12,CCOc1ccc(NC(=O)c2ccc(OCC)cc2)cc1,-7.08%
13,Cc1ccc(-c2csc(-c3cc4ccc(O)cc4oc3=O)n2)cc1C,-1.15%
14,COc1cc(OC)cc(-c2nc3nc(C)c(CCC(=O)NC4CCCC4)c(C)n3n2)c1,-0.465%
15,Cc1cc(O)n2nc(C(C)C)nc2n1,2%
16,C[C@@H](C[C@H](NC(=O)c1ccc(OC(F)(F)F)cc1)C(=O)NCC#N)c1ccccc1,0.079%
17,O=c1c2c3c(sc2[nH]c(=S)n1-c1ccccc1)CN(Cc1ccccc1)CC3,57.7%
18,NS(=O)(=O)c1ccc2c(c1)C1C=CCC1C(c1ccc(F)cc1)N2 (stereo not drawn),0.0538%
19,COc1ccccc1CNc1ncc(-c2ccccc2)n1C,-2.91%
20,CCCCN(C)C(=O)Cn1ncc2c(C)n(Cc3ccc(F)cc3)c(C)c2c1=O,-3.96%
21,CCOC(=O)N1CCC(NCCc2ccccc2Cl)CC1,5.03%
22,COC(=O)C1=CN(C(C)C)C=C(C(=O)OC)C1c1ccc2c(c1)OCO2,3.45%
23,O=S(=O)(c1ccc(Br)c(S(=O)(=O)N2CCCCCC2)c1)N1CCCCCC1,5.53%
24,COc1cccc2c(O)c(NC(=O)N3CCC(O)CC3)cnc12,5.2%
25,Cc1ccc(Cl)cc1-n1cnnn1,3.01%
26,CCOc1ccc(N2C(=O)CC(N3CCN(C(=O)CN4CCCC4)CC3)C2=O)cc1 (stereo not drawn),-4.75%

row,Compound,% Inhibition @ 10 uM
1,O=C(CCCCCN1C(=O)c2cccc3cccc(c23)C1=O)NCc1cccnc1,-1.92%
2,O=C(Nc1ccc(F)cc1)c1ccc(C(=O)Nc2ccc(F)cc2)cc1,-0.351%
3,COc1ccc(C2C3=C(O)CC(C)(C)CC3=NC(C)=C2C(=O)N2CCCCC2)cc1OC (stereo not drawn),-3.23%
4,CCc1nc2ccc(C(=O)N3CCC(N4CCCCC4)CC3)cc2nc1CC,0.775%
5,Cc1ccccc1OCC(=O)Nc1nccs1,-2.27%
6,CN(Cc1ccccc1)S(=O)(=O)c1cc(F)ccc1CN1C(=O)c2cccnc2C1=O,-2.74%
7,CC(C)CNC(=O)CN(C)S(=O)(=O)c1ccc(F)cc1,-6.3%
8,O=C(CC(NCCN1CCOCC1)C(=O)O)Nc1cccc(Cl)c1 (stereo not drawn),-2.98%
9,Cc1ccc(-c2nc3scc(CCNC(=O)c4cccc(C(F)(F)F)c4)n3n2)cc1,-0.48%
10,N#Cc1conc1-c1ccc(Cl)cc1,1.43%
11,Fc1ccccc1N1CCN(Cc2ccco2)CC1,3.8%
12,Cc1cc(C(F)(F)F)nn1CC(=O)Nc1sc2c(c1C(N)=O)CCCC2,-1.49%
13,CCN1CCN(C(c2cccnc2)c2ccc3cccnc3c2O)CC1 (stereo not drawn),-3.33%
14,Cn1c(SCc2ccc(F)cc2)nc2ccc(C(=O)N3CCN(c4ccccn4)CC3)cc21,-6.99%
15,COc1ccc(NC(=O)CCCOc2ccc(Cl)cc2C)cc1,-0.641%
16,O=C(Nc1nccs1)[C@H](c1ccc(F)cc1)N1Cc2ccccc2C1=O,-7.24%
17,Cc1nnc(SCC(=O)NCCc2ccccc2)nc1O,-7.09%
18,CCCCOCC1Cc2c(C)nn(C(N)=S)c2O1 (stereo not drawn),1.81%
19,Nc1ccc(C23CC4CC(C2)CC(c2ccc(N)cc2)(C4)C3)cc1,-3.77%
20,COc1ccc(/C=C2\SC(=O)N(c3ccccc3OC)C2=O)cc1,-9.65%
21,Cc1cc(NC(=O)C2CC(c3ccc(F)cc3)=NO2)no1 (stereo not drawn),-2.16%
22,Cc1ccc(NC(=O)CC2SC(NC3CCCCC3)=NC2=O)cc1 (stereo not drawn),0.512%
23,CC(=O)N/C(=C\c1ccccc1)C(=O)N(C(C)C)C(C)C,-2.51%
24,Fc1ccccc1OCCCN1CCOCC1,-2.12%
25,O=C(O)C1CCN(S(=O)(=O)c2ccc3c(c2)OCCO3)CC1,-2.4%
